Measured values published in a compilation of properties of binary mixtures (doi:10.1007/s10953-007-9135-4).
Some of these densities may be calculated back from excess volumes.

Assay: xn = mol fraction of the nth substance listed

CCn1cc[n+](C)c1.COCCOCCOS(=O)(=O)[O-] + CO
mass density [kg/m3], 101.3 kPa
Conditions	298.15 K	303.15 K	315.15 K
x1 = 0.017	833.7	829.2	820.2
x2 = 0.038	1233.7	1222.9	–
x2 = 0.103	1228.8	1217.9	1217.9
x2 = 0.189	1221.3	–	1210.4
x2 = 0.238	1216.7	–	1205.8
x2 = 0.373	1200.9	1190	1190
x2 = 0.439	1190.7	1179.6	1179.6
x2 = 0.53	1173.3	–	–
x2 = 0.641	1144	1132.7	1132.7
x2 = 0.747	1101.6	–	1089.8
x2 = 0.804	1068.7	1064.6	1056.8
x2 = 0.857	1027.7	–	1015.5
x2 = 0.899	983.3	979	970.8
x2 = 0.931	938.6	934.2	925.8
x2 = 0.963	881.9	877.4	–

CCn1cc[n+](C)c1.COCCOCCOS(=O)(=O)[O-] + O
mass density [kg/m3], 101.3 kPa
Conditions	298.15 K	303.15 K	315.15 K
x2 = 0.111	1234.4	1230.6	1223.7
x2 = 0.17	1233.2	–	1222.6
x2 = 0.259	1231.2	1227.5	1220.6
x2 = 0.351	1228.6	1224.9	–
x2 = 0.41	1226.6	–	1216
x2 = 0.485	1223.4	1219.8	1212.8
x2 = 0.564	1219.1	1215.4	–
x2 = 0.65	1212.5	1208.8	1201.7
x2 = 0.733	1202.8	1199	1191.9
x2 = 0.787	1193	1189.1	1182
x2 = 0.84	1178.6	1174.8	1167.7
x2 = 0.906	1146.3	1142.8	1136
x2 = 0.916	1138.8	1135.4	1128.7
x2 = 0.95	–	1100.8	1094.7
x2 = 0.978	1056	1053.7	1049

CCCCCCCCn1cc[n+](C)c1.COCCOCCOS(=O)(=O)[O-] + CO
mass density [kg/m3], 101 kPa
Conditions	x2 = 0.11	x2 = 0.307	x2 = 0.447	x2 = 0.608	x2 = 0.803	x2 = 0.909
298.15 K	1112.3	1102.2	1091	–	1018.2	947.1
303.15 K	1108.7	1098.6	1087.4	1067.2	1014.3	943.1
315.15 K	1101.9	1091.8	1080.5	–	1006.6	935

CCCC[n+]1ccn(C)c1.COCCOCCOS(=O)(=O)[O-] + CO
mass density [kg/m3], 101.3 kPa
Conditions	298.15 K	303.15 K	313.15 K
x2 = 0.055	1187.3	1187.3	1176.7
x2 = 0.093	1182	1181.4	1174.4
x2 = 0.136	1182.1	1178.5	1171.5
x2 = 0.199	1177.4	1173.8	1166.9
x2 = 0.265	1171.8	1168.2	1161.4
x2 = 0.335	1165.1	1161.5	1154.6
x2 = 0.388	1159.2	1155.6	–
x2 = 0.481	1146.7	1143.1	1136.1
x2 = 0.533	1138.1	–	1127.5
x2 = 0.649	–	1108.8	1101.8
x2 = 0.711	1092.9	1089.1	1081.8
x2 = 0.775	1066.1	1062.2	1054.9
x2 = 0.877	997.2	–	985.6
x2 = 0.91	–	955.1	–
x2 = 0.912	959.3	–	946.9
x2 = 0.951	902.7	–	890.1
x2 = 0.979	843.8	839.4	830.3
